Experimental data: PubChem BioAssay AID256 (DTP/NCI, 2004)
“And” between values parts separate entries of the source, which are not always exact repeats. Equal entries are not always repeated. This continues a long series; more values of the same kind are listed elsewhere. Inconclusive results and toxic doses are left out.

Tested on: CD2F1 mice, L1210 leukemia ip, survival T/C
Experiment: NCI In Vivo Anticancer Drug Screen. Data for tumor model L1210 Leukemia (intraperitoneal) in CD2F1 (CDF1) mice
Details: higher = longer survival
Outline: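 Tumor-bearing mice (transplanted tumor) were split into treated and vehicle control groups, and the measured endpoint of each treated group was divided by that of its vehicle controls.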

`O=c1[nH]cc(F)c(=O)[nH]1` was tested, and the T/C (endpoint: mean survival time, dose: 75.0 mg/kg/injection, schedule: Q04DX003 (ip), vehicle: saline) was 178 % of control, the T/C (endpoint: mean survival time, dose: 80.0 mg/kg/injection, schedule: Q01DX007 (ip), vehicle: saline) was 98 % of control and the T/C (endpoint: mean survival time, dose: 80.0 mg/kg/injection, schedule: Q03DX003 (ip), vehicle: saline) was 109 % of control. The T/C (endpoint: mean survival time, dose: 90.0 mg/kg/injection, schedule: Q04DX003 (ip), vehicle: saline with Tween-80) was 176 % of control, the T/C (endpoint: mean survival time, dose: 100.0 mg/kg/injection, schedule: Q01DX009 (oral), vehicle: saline) was 88 % of control and the T/C (endpoint: mean survival time, dose: 100.0 mg/kg/injection, schedule: Q04DX003 (ip), vehicle: saline with Tween-80) was 191 % of control. For the same compound, the T/C (endpoint: mean survival time, dose: 101.3 mg/kg/injection, schedule: Q04DX003 (ip), vehicle: saline) was 96 % of control, the T/C (endpoint: mean survival time, dose: 120.0 mg/kg/injection, schedule: Q01DX005 (oral), vehicle: saline) was 94 % of control and the T/C (endpoint: mean survival time, dose: 120.0 mg/kg/injection, schedule: Q04DX003 (ip), vehicle: saline sonified) was 193 % of control. For the same compound, the T/C (endpoint: mean survival time, dose: 125.0 mg/kg/injection, schedule: Q04DX003 (oral), vehicle: saline) was 96 % of control, the T/C (endpoint: mean survival time, dose: 128.0 mg/kg/injection, schedule: Q01DX009 (oral), vehicle: saline) was 102 % of control and the T/C (endpoint: mean survival time, dose: 133.0 mg/kg/injection, schedule: Q07DX002 (ip), vehicle: saline) was 188 % of control. For the same compound, the T/C (endpoint: mean survival time, dose: 160.0 mg/kg/injection, schedule: Q01DX002 (ip), vehicle: saline) was 87 % of control, the T/C (endpoint: mean survival time, dose: 160.0 mg/kg/injection, schedule: Q04DX003 (ip), vehicle: saline) was 107 % of control and the T/C (endpoint: mean survival time, dose: 200.0 mg/kg/injection, schedule: Q01DX009 (oral), vehicle: saline) was 86 % of control. For the same compound, the T/C (endpoint: mean survival time, dose: 200.0 mg/kg/injection, schedule: Q07DX002 (ip), vehicle: saline) was 191 % of control, the T/C (endpoint: mean survival time, dose: 200.0 mg/kg/injection, schedule: Q08DX002 (oral), vehicle: saline) was 89 % of control and the T/C (endpoint: mean survival time, dose: 240.0 mg/kg/injection, schedule: Q04DX003 (ip), vehicle: saline) was 101 % of control. The T/C (endpoint: mean survival time, dose: 250.0 mg/kg/injection, schedule: Q04DX003 (oral), vehicle: saline) was 108 % of control, the T/C (endpoint: mean survival time, dose: 256.0 mg/kg/injection, schedule: Q01DX009 (oral), vehicle: saline) was 96 % of control and the T/C (endpoint: mean survival time, dose: 256.0 mg/kg/injection, schedule: Q04DX003 (ip), vehicle: water) was 103 % of control. The T/C (endpoint: mean survival time, dose: 267.0 mg/kg/injection, schedule: Q07DX002 (ip), vehicle: saline) was 180 % of control, the T/C (endpoint: mean survival time, dose: 400.0 mg/kg/injection, schedule: Q04DX003 (oral), vehicle: saline) was 91 % of control and the T/C (endpoint: mean survival time, dose: 400.0 mg/kg/injection, schedule: Q08DX002 (oral), vehicle: saline) was 87 % of control. For the same compound, the T/C (endpoint: mean survival time, dose: 500.0 mg/kg/injection, schedule: Q01DX001 (oral), vehicle: saline) was 109 % of control, the T/C (endpoint: mean survival time, dose: 500.0 mg/kg/injection, schedule: Q04DX003 (oral), vehicle: saline) was 102 % of control and the T/C (endpoint: mean survival time, dose: 512.0 mg/kg/injection, schedule: Q01DX001 (ip), vehicle: water) was 93 % of control. The T/C (endpoint: mean survival time, dose: 512.0 mg/kg/injection, schedule: Q08DX002 (ip), vehicle: water) was 92 % of control, the T/C (endpoint: mean survival time, dose: 1000.0 mg/kg/injection, schedule: Q01DX001 (oral), vehicle: saline) was 103 % of control and the T/C (endpoint: mean survival time, dose: 1000.0 mg/kg/injection, schedule: Q04DX003 (oral), vehicle: saline) was 96 % of control. The T/C (endpoint: median survival time, dose: 3.89 mg/kg/injection, schedule: Q01DX009 (ip), vehicle: saline) was 110 % of control, the T/C (endpoint: median survival time, dose: 10.8 mg/kg/injection, schedule: Q01DX009 (ip), vehicle: saline) was 184 % of control and the T/C (endpoint: median survival time, dose: 15.0 mg/kg/injection, schedule: Q01DX009 (ip), vehicle: saline) was 190 % of control and 194 % of control. For the same compound, the T/C (endpoint: median survival time, dose: 16.0 mg/kg/injection, schedule: Q01DX005 (ip), vehicle: saline) was 180 % of control, the T/C (endpoint: median survival time, dose: 30.0 mg/kg/injection, schedule: Q01DX001 (ip), vehicle: alkali diluted with saline) was 187 % of control and the T/C (endpoint: median survival time, dose: 30.0 mg/kg/injection, schedule: Q01DX009 (ip), vehicle: saline) was 227 % of control. The T/C (endpoint: median survival time, dose: 30.0 mg/kg/injection, schedule: Q## X009 (ip), vehicle: saline) was 227 % of control, the T/C (endpoint: median survival time, dose: 32.0 mg/kg/injection, schedule: Q01DX005 (ip), vehicle: saline) was 196 % of control and the T/C (endpoint: median survival time, dose: 35.0 mg/kg/injection, schedule: Q01DX005 (ip), vehicle: saline) was 217 % of control and 218 % of control. The T/C (endpoint: median survival time, dose: 64.0 mg/kg/injection, schedule: Q01DX005 (ip), vehicle: saline) was 101 % of control, the T/C (endpoint: median survival time, dose: 66.0 mg/kg/injection, schedule: Q04DX003 (ip), vehicle: saline) was 219 % of control and the T/C (endpoint: median survival time, dose: 80.0 mg/kg/injection, schedule: Q04DX002 (ip), vehicle: saline) was 188 % of control. For the same compound, the T/C (endpoint: median survival time, dose: 100.0 mg/kg/injection, schedule: Q04DX002 (ip), vehicle: saline) was 220 % of control, the T/C (endpoint: median survival time, dose: 110.0 mg/kg/injection, schedule: Q04DX003 (ip), vehicle: saline) was 110 % of control and the T/C (endpoint: median survival time, dose: 128.0 mg/kg/injection, schedule: Q01DX005 (ip), vehicle: saline) was 101 % of control. The T/C (endpoint: median survival time, dose: 133.0 mg/kg/injection, schedule: Q01DX001 (ip), vehicle: saline) was 100 % of control, the T/C (endpoint: median survival time, dose: 200.0 mg/kg/injection, schedule: Q01DX001 (ip), vehicle: saline) was 100 % of control and the T/C (endpoint: median survival time, dose: 256.0 mg/kg/injection, schedule: Q01DX005 (ip), vehicle: saline) was 98 % of control. For the same compound, the T/C (endpoint: median survival time, dose: 267.0 mg/kg/injection, schedule: Q01DX001 (ip), vehicle: saline) was 100 % of control, the T/C (endpoint: median survival time, dose: 300.0 mg/kg/injection, schedule: Q01DX001 (ip), vehicle: Klucel (hydroxypropylcellulose) (HPC)) was 180 % of control and 183 % of control and the T/C (endpoint: median survival time, dose: 512.0 mg/kg/injection, schedule: Q01DX005 (ip), vehicle: saline) was 95 % of control. The T/C (endpoint: median survival time, dose: 600.0 mg/kg/injection, schedule: Q01DX001 (ip), vehicle: Klucel (hydroxypropylcellulose) (HPC)) was 185 % of control (2×) and 196 % of control.
